Measurements reported in the supplement of paper PMC8728848.
The list shows a part of the results.

Assays:
Assay in all cases: glycan array binding signal (z-score within array); higher = stronger binding
Conditions in all cases: glycan notation: IUPAC condensed, linker removed
[1] = biological target: Neu5Ac(a2-3)Gal(b1-4)GlcNAc(b1-3)Gal(b1-4)[Fuc(a1-3)]GlcNAc
How it was run: (§1)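 Columns mapping to the same glycan were averaged after glycan names were converted to IUPAC-condensed notation. The data come from 3228 arrays in the Consortium for Functional Glycomics database, limited to those with an available protein sequence. Binding is reported as a within-array Z-score averaged across arrays of one protein sequence and across linkers.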

[2] = biological target: Neu5Ac(a2-3)Gal(b1-4)GlcNAc(b1-3)GalNAc
How it was run: as §1

[3] = biological target: Neu5Ac(a2-3)Gal(b1-4)GlcNAc(b1-6)[Gal(b1-3)]GalNAc
How it was run: as §1

[4] = biological target: Neu5Ac(a2-3)Gal(b1-4)GlcNAc(b1-6)[Neu5Ac(a2-3)Gal(b1-3)]GalNAc
How it was run: as §1

[5] = biological target: Neu5Ac(a2-3)Gal(b1-4)GlcNAc6S
How it was run: as §1

[6] = biological target: Neu5Ac(a2-3)Gal(b1-4)[Fuc(a1-3)]GlcNAc
How it was run: as §1

[7] = biological target: Neu5Ac(a2-3)Gal(b1-4)[Fuc(a1-3)]GlcNAc(b1-3)Gal
How it was run: as §1

[8] = biological target: Neu5Ac(a2-3)Gal(b1-4)[Fuc(a1-3)]GlcNAc(b1-3)Gal(b1-4)GlcNAc
How it was run: as §1

[9] = biological target: Neu5Ac(a2-3)Gal(b1-4)[Fuc(a1-3)]GlcNAc(b1-3)Gal(b1-4)[Fuc(a1-3)]GlcNAc(b1-3)Gal(b1-4)[Fuc(a1-3)]GlcNAc
How it was run: as §1

[10] = biological target: Neu5Ac(a2-3)Gal(b1-4)[Fuc(a1-3)]GlcNAc(b1-6)[Gal(b1-3)]GalNAc
How it was run: as §1

[11] = biological target: Neu5Ac(a2-3)Gal(b1-4)[Fuc(a1-3)]GlcNAc(b1-6)[Neu5Ac(a2-3)Gal(b1-3)]GalNAc
How it was run: as §1

[12] = biological target: Neu5Ac(a2-3)Gal(b1-4)[Fuc(a1-3)]GlcNAc6S
How it was run: as §1

[13] = biological target: Neu5Ac(a2-3)Gal6S(b1-4)GlcNAc
How it was run: as §1

[14] = biological target: Neu5Ac(a2-3)Gal6S(b1-4)[Fuc(a1-3)]GlcNAc
How it was run: as §1

Neu5Ac(a2-3)GalNAc = biological target: Neu5Ac(a2-3)GalNAc
How it was run: as §1

[15] = biological target: Neu5Ac(a2-3)GalNAc(b1-4)GlcNAc
How it was run: as §1

[16] = biological target: Neu5Ac(a2-3)[GalNAc(b1-4)]Gal(b1-4)Glc
How it was run: as §1

[17] = biological target: Neu5Ac(a2-3)[GalNAc(b1-4)]Gal(b1-4)GlcNAc
How it was run: as §1

[18] = biological target: Neu5Ac(a2-3)[Neu5Ac(a2-6)]GalNAc
How it was run: as §1

Neu5Ac(a2-6)Gal = biological target: Neu5Ac(a2-6)Gal
How it was run: as §1

Neu5Ac(a2-6)Gal(b1-4)Glc = biological target: Neu5Ac(a2-6)Gal(b1-4)Glc
How it was run: as §1

[19] = biological target: Neu5Ac(a2-6)Gal(b1-4)GlcNAc
How it was run: as §1

[20] = biological target: Neu5Ac(a2-6)Gal(b1-4)GlcNAc(b1-2)Man(a1-3)Man(b1-4)GlcNAc(b1-4)GlcNAc
How it was run: as §1

[21] = biological target: Neu5Ac(a2-6)Gal(b1-4)GlcNAc(b1-2)Man(a1-3)[Gal(b1-4)GlcNAc(b1-2)Man(a1-6)]Man(b1-4)GlcNAc(b1-4)GlcNAc
How it was run: as §1

[22] = biological target: Neu5Ac(a2-6)Gal(b1-4)GlcNAc(b1-2)Man(a1-3)[GlcNAc(b1-2)Man(a1-6)]Man(b1-4)GlcNAc(b1-4)GlcNAc
How it was run: as §1

[23] = biological target: Neu5Ac(a2-6)Gal(b1-4)GlcNAc(b1-2)Man(a1-3)[GlcNAc(b1-2)Man(b1-4)GlcNAc(b1-2)Man(a1-6)]Man(b1-4)GlcNAc(b1-4)GlcNAc
How it was run: as §1

[24] = biological target: Neu5Ac(a2-6)Gal(b1-4)GlcNAc(b1-2)Man(a1-3)[Man(a1-6)]Man(b1-4)GlcNAc(b1-4)GlcNAc
How it was run: as §1

[25] = biological target: Neu5Ac(a2-6)Gal(b1-4)GlcNAc(b1-2)Man(a1-3)[Neu5Ac(a2-6)Gal(b1-4)GlcNAc(b1-2)Man(a1-6)]Man(b1-4)GlcNAc(b1-4)GlcNAc
How it was run: as §1

[26] = biological target: Neu5Ac(a2-6)Gal(b1-4)GlcNAc(b1-2)Man(a1-6)Man(b1-4)GlcNAc(b1-4)GlcNAc
How it was run: as §1

[27] = biological target: Neu5Ac(a2-6)Gal(b1-4)GlcNAc(b1-2)Man(a1-6)[Gal(b1-4)GlcNAc(b1-2)Man(a1-3)]Man(b1-4)GlcNAc(b1-4)GlcNAc
How it was run: as §1

[28] = biological target: Neu5Ac(a2-6)Gal(b1-4)GlcNAc(b1-2)Man(a1-6)[GlcNAc(b1-2)Man(a1-3)]Man(b1-4)GlcNAc(b1-4)GlcNAc
How it was run: as §1

[29] = biological target: Neu5Ac(a2-6)Gal(b1-4)GlcNAc(b1-2)Man(a1-6)[Man(a1-3)]Man(b1-4)GlcNAc(b1-4)GlcNAc
How it was run: as §1

[30] = biological target: Neu5Ac(a2-6)Gal(b1-4)GlcNAc(b1-3)Gal(b1-3)GlcNAc
How it was run: as §1

[31] = biological target: Neu5Ac(a2-6)Gal(b1-4)GlcNAc(b1-3)Gal(b1-4)GlcNAc
How it was run: as §1

[32] = biological target: Neu5Ac(a2-6)Gal(b1-4)GlcNAc(b1-3)Gal(b1-4)GlcNAc(b1-3)Gal(b1-4)GlcNAc
How it was run: as §1

[33] = biological target: Neu5Ac(a2-6)Gal(b1-4)GlcNAc(b1-3)Gal(b1-4)[Fuc(a1-3)]GlcNAc(b1-3)Gal(b1-4)[Fuc(a1-3)]GlcNAc
How it was run: as §1

[34] = biological target: Neu5Ac(a2-6)Gal(b1-4)GlcNAc(b1-3)GalNAc
How it was run: as §1

[35] = biological target: Neu5Ac(a2-6)Gal(b1-4)GlcNAc6S
How it was run: as §1

B1: GALT1 615 (Arabidopsis thaliana), Q8L7F9 (protein)
chain: DPMRGSHHHHHHGMASMTGGQQMGRDLYDDDDKSRLQKPYITAAASVVVTPNTTLPMEWLRITLPDFMKEARNTQEAISGDDIAVVSGLFVEQNVSKEEREPLLTWNRLESLVDNAQSLVNGVDAIKEAGIVWESLVSAVEAKKLVDVNENQTRKGKEELCPQFLSKMNATEADGSSLKLQIPCGLTQGSSITVIGIPDGLVGSFRIDLTGQPLPGEPDPPIIVHYNVRLLGDKSTEDPVIVQNSWTASQDWGAEERCPKFDPDMNKKVDDLDECNKMVGGEINRTSSTSLQSNTSRGVPVAREASKHEKYFPFKQGFLSVATLRVGTEGMQMTVDGKHITSFAFRDTLEPWLVSEIRITGDFRLISILA
glycan array binding signal (z-score) [1]: -0.317
glycan array binding signal (z-score) [2]: 0.095
glycan array binding signal (z-score) [3]: -0.312
glycan array binding signal (z-score) [4]: -0.225
glycan array binding signal (z-score) [5]: -0.078
glycan array binding signal (z-score) [6]: -0.085
glycan array binding signal (z-score) [7]: -0.267
glycan array binding signal (z-score) [8]: 0.904
glycan array binding signal (z-score) [9]: -0.28
glycan array binding signal (z-score) [10]: -0.548
glycan array binding signal (z-score) [11]: -0.534
glycan array binding signal (z-score) [12]: -0.462
glycan array binding signal (z-score) [13]: -0.257
glycan array binding signal (z-score) [14]: -0.04
glycan array binding signal (z-score) (Neu5Ac(a2-3)GalNAc): -0.187
glycan array binding signal (z-score) [15]: -0.452
glycan array binding signal (z-score) [16]: -0.15
glycan array binding signal (z-score) [17]: -0.09
glycan array binding signal (z-score) [18]: -0.368
glycan array binding signal (z-score) (Neu5Ac(a2-6)Gal): -0.271
glycan array binding signal (z-score) (Neu5Ac(a2-6)Gal(b1-4)Glc): 0.148
glycan array binding signal (z-score) [19]: -0.001
glycan array binding signal (z-score) [20]: -0.144
glycan array binding signal (z-score) [21]: 0.026
glycan array binding signal (z-score) [22]: 0
glycan array binding signal (z-score) [23]: 0.829
glycan array binding signal (z-score) [24]: -0.5
glycan array binding signal (z-score) [25]: 0.043
glycan array binding signal (z-score) [26]: -0.297
glycan array binding signal (z-score) [27]: -0.211
glycan array binding signal (z-score) [28]: -0.313
glycan array binding signal (z-score) [29]: -0.315
glycan array binding signal (z-score) [30]: -0.302
glycan array binding signal (z-score) [31]: -0.267
glycan array binding signal (z-score) [32]: -0.247
glycan array binding signal (z-score) [33]: -0.298
glycan array binding signal (z-score) [34]: -0.114
glycan array binding signal (z-score) [35]: -0.299
